# In article PMC4336329 (PLoS ONE, 2015):
# The whole screen tested about 310,000 compounds, of which about 14,000 (4.5%) showed an effect of 50% or more. The effect is printed as a negative number. Some of the results follow.
# Molecular target: human ether-à-go-go-related gene (hERG) potassium channel (human, UniProt Q12809)
# Assay: primary screen, population patch clamp on CHO cells stably expressing hERG
# 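Further: peak tail current of the secondary pulse compared with the same well before compound.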
# Sequence of human ether-à-go-go-related gene (hERG) potassium channel (Q12809 whole entry, looked up): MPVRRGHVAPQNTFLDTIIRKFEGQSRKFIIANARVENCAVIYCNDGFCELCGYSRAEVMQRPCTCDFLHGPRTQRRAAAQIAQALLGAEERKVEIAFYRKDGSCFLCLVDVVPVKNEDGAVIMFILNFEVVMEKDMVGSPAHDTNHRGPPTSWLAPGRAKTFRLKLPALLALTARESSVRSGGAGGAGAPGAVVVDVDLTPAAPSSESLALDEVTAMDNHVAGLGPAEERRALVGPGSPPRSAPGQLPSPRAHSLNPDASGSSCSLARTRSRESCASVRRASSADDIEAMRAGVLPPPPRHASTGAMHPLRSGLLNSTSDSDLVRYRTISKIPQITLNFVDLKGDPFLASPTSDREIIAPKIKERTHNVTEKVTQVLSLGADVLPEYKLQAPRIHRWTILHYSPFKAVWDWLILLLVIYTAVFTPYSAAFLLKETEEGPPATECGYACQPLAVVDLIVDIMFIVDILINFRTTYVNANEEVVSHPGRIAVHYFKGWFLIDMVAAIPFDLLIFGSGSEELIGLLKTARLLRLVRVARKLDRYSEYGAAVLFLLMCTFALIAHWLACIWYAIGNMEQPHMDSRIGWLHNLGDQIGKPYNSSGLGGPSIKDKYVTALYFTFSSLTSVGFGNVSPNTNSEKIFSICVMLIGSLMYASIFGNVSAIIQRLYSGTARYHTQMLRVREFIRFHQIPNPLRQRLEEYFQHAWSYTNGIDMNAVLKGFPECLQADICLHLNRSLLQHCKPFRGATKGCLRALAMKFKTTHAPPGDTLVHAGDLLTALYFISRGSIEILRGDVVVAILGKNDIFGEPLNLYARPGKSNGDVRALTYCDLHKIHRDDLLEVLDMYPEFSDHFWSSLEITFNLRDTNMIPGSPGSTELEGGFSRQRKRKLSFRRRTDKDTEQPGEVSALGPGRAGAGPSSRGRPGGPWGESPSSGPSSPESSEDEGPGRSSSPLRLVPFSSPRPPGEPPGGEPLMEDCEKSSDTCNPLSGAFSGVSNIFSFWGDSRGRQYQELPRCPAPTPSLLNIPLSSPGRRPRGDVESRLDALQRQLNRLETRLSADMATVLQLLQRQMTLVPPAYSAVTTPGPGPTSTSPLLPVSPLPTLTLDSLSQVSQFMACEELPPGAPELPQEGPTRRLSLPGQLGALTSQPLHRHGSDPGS
row,Structure (SMILES),"hERG current change (%, negative = inhibition) at 10uM"
1,O=C(CN1CCC(O)(c2ccc3c(c2)OCO3)CC1)NC1CCCCC1,3.07%
2,NS(=O)(=O)c1ccc(CCNC(=O)C(=O)C2C(=O)Nc3ccccc32)cc1 (stereo not drawn),-7.71%
3,CCn1c(-c2ccncc2)n[nH]c1=S,14.6%
4,CC(C)(C)CC(=O)Nc1cccc(-c2cn3cccnc3n2)c1,-18.1%
5,CCOC(=O)C1=NOC2COC3(CCN(c4ncccn4)CC3)OCC12 (stereo not drawn),8.23%
6,COc1ccccc1N(C)S(=O)(=O)c1ccc(C(=O)OCC(=O)N(C(C)C)C(C)C)cc1,-35.7%
7,O=C(CCc1ccccc1)Nc1ccc(F)c([N+](=O)[O-])c1,8.88%
8,CCOC(=O)N1CCN(c2cc(=O)n(-c3cccc(C)c3)c(=O)[nH]2)CC1,-10.7%
9,COc1ccc(CN2CCN(C(=O)CCC(=O)Nc3nnc(C4CCCCC4)s3)CC2)cc1F,-50.2%
10,CC(C)Nc1nnc(SC(C)C(=O)NCc2ccc3c(c2)OCO3)s1 (stereo not drawn),8.53%
11,COc1cccc(OCC(O)CN2CCN(c3ccccc3)CC2)c1 (stereo not drawn),-45.2%
12,CCOC(=O)c1sc2nc(SC)nc(-c3ccc(Cl)cc3)c2c1N,18.5%
13,O=C(CSC1=NS(=O)(=O)c2ccccc2N1)Nc1nccs1,6.97%
14,S=C(NC1CCCCC1)N1CCCCC1,12.8%
15,CCCNC(=O)CN(c1ccc(F)cc1)S(=O)(=O)c1ccc2c(c1)OCCO2,-1.52%
16,Cc1ccc(-c2csc3nc4c5ccccc5c(NCCCN(C)C)nn4c(=O)c23)cc1,-78%
17,CN(c1ccccc1)S(=O)(=O)c1cccc(NC(=O)c2cc3ccccc3oc2=O)c1,4.41%
18,OCCNc1nc(Cl)nc(NCc2ccco2)n1,8.89%
19,O=C(Cn1cnc2ccccc2c1=O)Nc1nnc(SCc2ccc(Cl)cc2)s1,10.9%

row,Structure (SMILES),"hERG current change (%, negative = inhibition) at 10uM"
1,C=CCn1cccc(C(=O)Nc2ccc(N(C)C)cc2)c1=O,3.66%
2,COc1ccccc1Nc1nc2ccccc2[nH]1,-8.62%
3,COC(=O)C(CCSC)NC(=O)c1cccc([N+](=O)[O-])c1 (stereo not drawn),-12.1%
4,Cc1ccc(-n2cc3c(=O)n(C)c(=O)n(C)c3c2)cc1C,-6.21%
5,CC(=O)[C@@]1(O)C(C)CC2C3C=C(C)C4=Cc5c(cnn5-c5ccccc5)C[C@]4(C)C3C(O)C[C@@]21C (stereo partly drawn),2.48%
6,Cc1cc(C(=O)N/N=C/c2cccnc2)cs1,18.6%
7,COC(=O)c1ccc(C(NC(=O)OCc2ccccc2)/C(F)=C/[C@@H](C)C(=O)O)cc1 (stereo partly drawn),4.34%
8,O=C1CC(c2ccc3c(c2)OCO3)c2cc3c(cc2N1)OCO3 (stereo not drawn),-5.47%
9,O=[N+]([O-])c1ccccc1/C=N/OCc1ccccc1,19.2%
10,CCOC(=O)C1(Cc2ccc(OC)cc2)CCN(C(=O)c2cccc3nccnc23)CC1,-31.4%
11,NNC(=O)c1cccc(Cn2cc(Br)c([N+](=O)[O-])n2)c1,1.21%
12,COC(=O)c1sccc1-c1ccc(C(N)=O)o1,7.97%
13,Cc1cc(NC(=O)c2ccc(-c3ccc(F)c(Cl)c3)o2)no1,4.26%
14,CC1CC(C)CN(CC(O)COCCOc2ccc(Br)cc2)C1.Cl (stereo not drawn),-71.6%
15,Cc1nc2ccc(NC(=O)Cc3cccs3)cc2s1,11%
16,O=C(Nc1ccccc1)OC1CCC2CC1CCC2OC(=O)Nc1ccccc1 (stereo not drawn),1.62%
17,CC(O)(CC(=O)O)CC(=O)O,21.5%
18,COc1ccc(C(=O)COC(=O)c2ccccc2NS(=O)(=O)c2ccc(O)c([N+](=O)[O-])c2)cc1,-0.482%
19,CC(=O)c1ccc(NS(=O)(=O)c2cc3c(cc2C)N(C(C)=O)CCO3)cc1,15.3%

row,Structure (SMILES),"hERG current change (%, negative = inhibition) at 10uM"
1,CC(=O)c1cccc(N(C(=O)Cn2nnc3ccccc32)C(C(=O)NCC2CCCO2)c2ccc(N3CCOCC3)cc2)c1 (stereo not drawn),2.47%
2,COc1ccc(NC(=O)C2(c3ccc(NC(=O)c4ccc(C)cc4)cc3)CCCC2)cc1,6.52%
3,CC(=O)N1c2ccc(S(=O)(=O)N3CCC(C(=O)N4CCC(C)CC4)CC3)cc2CC1C (stereo not drawn),14.9%
4,Cn1c(N=Nc2ccccc2)nc2ccccc21,4.08%
5,Oc1c(Cl)cc(Cl)cc1C=Nc1ccc2c(c1)OCCO2,21.2%
6,Nc1cccc(Nc2ccccc2)c1,29.4%
7,CC(C)(C)OC(=O)N1CCN(C(=O)[C@H](Cc2ccc(O)cc2)n2cc(CCO)nn2)CC1,4.52%
8,COn1c(-c2ccc(C)cc2)nc2ncccc21,10.9%
9,O=C(COC(=O)c1cncc(Br)c1)Nc1nnc(-c2ccccc2)o1,6.48%
10,Cc1cc(=O)c2ccc3ccccc3c2[nH]1,7.45%
11,Cc1ccc(C)c(OCCCN2CCNCC2)c1.Cl,13.7%
12,Cc1ccc(NC(=O)C2CCCN(S(=O)(=O)c3ccc4[nH]c(=O)ccc4c3)C2)nc1 (stereo not drawn),8.74%
13,COc1ccc(C2CC(c3ccccc3)n3nnnc3N2)cc1 (stereo not drawn),10.4%
14,Oc1c(Br)cc(Br)cc1Oc1ccc(Br)cc1Br,5.75%
15,CCN(Cc1nc2ccccc2c(=O)[nH]1)C(=O)c1cccc(S(=O)(=O)N2CCc3ccccc32)c1,-29.4%
16,CNc1nc(N)c([N+](=O)[O-])c(Nc2ccccc2OC)n1,14%
17,Cc1ccc(Cn2c(=N)n(CC(O)COc3ccccc3)c3ccccc32)cc1.Cl (stereo not drawn),-68.9%
18,COc1ccc(/C=N\N=C(N)N)cc1.O=[N+]([O-])O,-1.01%
19,CCOC(=O)c1c(NC(=S)Nc2ccccc2C)sc2c1CCC2,7.79%
